Measured values: PubChem BioAssay AID1508624 (National Center for Advancing Translational Sciences (NCATS), 2021)
Among all 48,000 compounds or so, about 120 (0.25%) were called active. Inconclusive results (about 4%) are left out. Calls come from the whole dose curve; as a rule, active = well fitted activation curve with a large enough effect; inconclusive = small, poorly fitted or top-dose-only effect, or another doubt; inactive = no such curve, though single readings can be large or run the other way. Some of the results follow.

assay: Primary qHTS for Identification of Small Molecule Activators of Huntingtin-Antisense Promoter Activity; settings: HEK293 HTT-AS promoter firefly luciferase reporter (activity 0% = vehicle and -100% = no light), 24 h; series mostly up to 57.5 µM; activity change, positive = activation: at the top concentration; note: nearly all actives have a fitted effect of over 55% in size
Method in brief: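 HEK293 luciferase promoter-reporter cells (2,500/well) plated 24 h, then compounds added at up to 57.5 uM final for 24 h at 37 °C. Firefly luminescence by Dual-Glo, normalized to vehicle (0%) and zero RLU (-100%).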

Activity change, positive = activation, inactive:
CCOc1ccccc1C1CC(=O)Oc2c1c(=O)n(C)c1ccccc21 (stereo unspecified) 15.8%, CCCCCCCCCCCCCCCCN -4.95%, Cc1ccc(-c2csc(=Nc3ccc(F)cc3)n2Cc2ccc3c(c2)OCO3)cc1C 11.6%, CCOc1ccccc1NS(=O)(=O)c1ccc(-c2cnc(C3CC3)o2)cc1 -46.2%, COc1cccc(NC(=O)CC(C)S(=O)(=O)c2ccc3c(c2)NC(=O)CO3)c1 (stereo unspecified) -13.6%, CC(=O)Nc1ccc(NC(=O)c2oc3ccc4c(c3c2C)C(=O)CC(C)(C)O4)cc1 -1.57%, O=c1c(N2CCc3ccccc3C2)csc2ccccc12 18.5%, O=C(NCCc1ccccc1)c1ccc2c(c1)N(Cc1ccccc1F)C(=O)c1ccccc1S2=O (stereo unspecified) 3.31%, Cc1ccc(-c2ccc(=O)n(CC(=O)Nc3cccc(C#N)c3)n2)cc1 -10.2%, CCOc1ccc(-c2nc3c(c(SCC(=O)N4CCCCC4)n2)Cc2ccccc2O3)cc1 5.67%, CNC(=O)C1CCC(Cn2c(=O)c3sccc3n(CC(=O)NCc3ccc(F)cc3)c2=O)CC1 (stereo unspecified) -17%, O=C(C1CCCN(S(=O)(=O)c2ccc(Br)s2)C1)N1CCN(c2ccccc2)CC1 (stereo unspecified) -32.5%, CC(=O)N1CCCc2cc(S(=O)(=O)N3CCCC(C(=O)Nc4cc(Cl)ccc4C)C3)ccc21 (stereo unspecified) -24.8%, Cc1ccc(C2CCN(C(=O)c3cnn(-c4ccc(C)cc4)c3C3CCN(C(=O)OC(C)(C)C)CC3)C2)cc1 (stereo unspecified) 26.5%, CC1=C(C(=O)Nc2cccnc2)C(c2ccccc2)n2nc(-c3ccc(O)cc3)nc2N1 (stereo unspecified) -7.11%, C=Cc1ccc(Cn2c(C(=O)O)c(CNCc3ccccc3)c3ccc(C)cc32)cc1 -57.6%, CCCCN(C)C(=O)C1CCC(CNS(=O)(=O)c2ccc(Cl)cc2)CC1 (stereo unspecified) -28.9%, CCC(Oc1ccccc1)C(=O)Nc1cc(-c2ccccc2OC)nn1-c1ccccc1 (stereo unspecified) 0.876%, Cc1ccc(CS(=O)(=O)c2ncc(Cl)c(C(=O)Nc3nc4ccc(F)cc4s3)n2)cc1 -86.1%, Cc1ccc(-c2nc3c(c(SCC(=O)Nc4ccccc4Cl)n2)Cc2c(CO)cnc(C)c2O3)cc1 -4.54%, CCOC(=O)c1c(S(=O)(=O)NCC(=O)NCc2cccc(C)c2)c(C)n(C)c1C -12.6%, COc1ccc(CCNC(=O)CSc2nc(-c3ccc(F)cc3)cc(C(F)(F)F)n2)cc1OC -19.4%, Cc1cccc(C(=O)Nc2nnc(S(=O)(=O)N(C)Cc3ccco3)s2)c1 -7.09%, CCCN1C[C@H](CSC)C[C@@H]2c3cccc4[nH]cc(c34)C[C@H]21 -14%, Cc1ccc(NC(=O)CN2C(=O)C3(SCC(=O)N3c3cccc(Cl)c3)c3ccccc32)cc1C (stereo unspecified) -33.8%, Cc1nn(-c2ccccc2)c2sc(C(=O)Nc3ccccc3Br)cc12 -18.1%
